# The other results are listed elsewhere or left out. Sequences were assembled here from the parent chain. Inactive controls read about 0.05.
# B1: TEV protease; numbered along this chain (parent)
# chain: MGESLFKGPRDYNPISSSICHLTNESDGHTTSLYGIGFGPFIITNKHLFRRNNGTLVVQSLHGVFKVKDTTTLQQHLVDGRDMIIIRMPKDFPPFPQKLKFREPQREERICLVTTNFQTKSMSSMVSDTSCTFPSGDGIFWKHWIQTKDGQCGSPLVSTRDGFIVGIHSASNFTNTNNYFTSVPKNFMELLTNQEAQQWVSGWRLNADSVLWGGHKVFMVKPEEPFQPVKEATQL
# Variants of: B1
# Assay: raw area under fraction-flipped curve 0-4 h after induction (AUC4h, not background-subtracted), DNA-recorder readout of cleavage of the substrate (dimensionless); higher = more cleavage of the substrate by the protease variant
# Details: temperature: 34 °C; time window: 0-4 h after rhamnose induction
# Method: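 In vivo DNA recorder in E. coli TOP10(DE3) ΔrhaA at 34 °C. Each TEVp single-site mutant (parent TEVp 0) is paired with a single-site variant of the 7-mer TEVs (canonical ENLYFQ|S). The substrate sits between flexible linkers in a Bxb1-sfGFP-TEVs-SsrA fusion, so cleavage stabilises Bxb1 and speeds flipping of a recombination array, read by NGS. The value is the raw area under the fraction-flipped curve over 0-4 h after rhamnose induction (AUC4h), with ≥20 reads per time point. It is not background-subtracted; inactive controls average about 0.047.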
# 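Further: Bxb1 expression induced with 0.2% (w/v) L-rhamnose at OD600 near 0.5, cultures sampled hourly, flipped fraction per protease–substrate barcode pair counted by paired-end Illumina sequencing.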
Variant,area with substrate ENAYFQS,area with substrate ENCYFQS,area with substrate ENDYFQS,area with substrate ENGYFQS,area with substrate ENMYFQS,area with substrate ENNYFQS,area with substrate ENPYFQS,area with substrate ENQYFQS,area with substrate ENTYFQS,area with substrate ENYYFQS,area with substrate ENEYFQS,area with substrate ENFYFQS,area with substrate ENIYFQS,area with substrate ENKYFQS,area with substrate ENSYFQS,area with substrate ENVYFQS,area with substrate ENWYFQS,area with substrate ENHYFQS,area with substrate ENRYFQS
P94N,0.0521,0.0652,0.0544,0.0591,0.0816,0.0518,0.0586,0.0711,0.0705,0.0689,,,,,,,,,
P94V,0.0584,0.0693,0.0628,,,,,0.0474,0.0485,0.082,0.0643,0.0638,0.0999,0.0493,0.0537,0.103,0.054,,
Q97N,0.0708,,,0.0562,,,,0.0626,,,,,0.108,,0.0628,,,0.0256,
Q97W,0.0537,0.0635,0.0849,,,0.075,,0.0578,0.0629,,0.0726,,,,0.0523,,,0.0503,
K98R,0.0631,0.0821,,,,0.0641,,0.0623,0.0622,,0.0568,0.062,,0.0447,0.0573,0.0712,,0.0783,0.0607
K98V,0.0509,0.055,0.0708,0.0503,,,0.0508,0.0801,0.0582,,0.0506,0.0601,,0.0481,0.0509,0.083,0.0788,0.0539,0.0684
L99E,0.06,,0.0831,,,0.061,,,,,,0.0514,,0.0687,0.0692,0.0579,,,
L99N,0.06,,0.0691,,,,,0.0508,,,0.0492,,0.0755,,0.0774,,,,0.0545
L99V,0.083,0.0844,0.0669,,,,0.0608,0.0643,,,0.0599,0.0732,0.105,0.0772,0.073,0.0692,,0.0679,0.0652
K100Q,0.0666,,0.081,,0.0749,0.0656,0.0592,0.0568,0.0535,,,,0.142,,,0.0895,0.0539,0.0626,0.0617
F101E,0.049,,,,0.0532,,,0.0569,,0.0408,0.056,0.0472,,,0.0461,0.0412,,0.0445,
F101I,0.0594,0.0654,0.0543,,,,,,,,,,0.0674,0.0577,,,0.0707,,
F101S,0.0479,0.0857,0.05,,,,,,,,,0.0284,,0.0348,0.066,,,,0.0653
E103D,0.0626,0.0718,,0.0406,,,,0.0554,0.0714,,,,,,0.0531,,,0.0537,
E103I,0.0354,,0.0571,0.0499,,0.0527,0.0634,0.06,,,0.0588,,,0.0694,0.0664,0.0743,,,0.0625
E103M,0.0642,0.0634,0.0641,0.0501,,0.0516,,0.0569,0.0565,,0.0608,0.0802,0.121,,0.0752,0.0723,0.035,0.0638,0.0564
R109T,0.0553,0.0566,0.0662,,,0.102,0.0462,0.0635,0.0414,,0.0643,0.0535,,,0.0593,,,0.0632,0.0506

Variant,area with substrate ENAYFQS,area with substrate ENCYFQS,area with substrate ENDYFQS,area with substrate ENGYFQS,area with substrate ENMYFQS,area with substrate ENNYFQS,area with substrate ENPYFQS,area with substrate ENQYFQS,area with substrate ENTYFQS,area with substrate ENYYFQS,area with substrate ENEYFQS,area with substrate ENFYFQS,area with substrate ENIYFQS,area with substrate ENKYFQS,area with substrate ENSYFQS,area with substrate ENVYFQS,area with substrate ENWYFQS,area with substrate ENHYFQS,area with substrate ENRYFQS
I110F,0.0503,0.0538,0.0575,0.0469,,,0.0364,0.0467,0.0547,0.064,0.0567,0.0524,0.0515,0.0559,0.0616,0.0587,0.0372,0.0572,0.051
V113K,0.0543,0.0745,,,,,0.0542,0.0396,,0.0759,,,0.0547,,,0.0532,,,0.0582
V113W,0.067,0.0662,,,0.0885,,0.0494,,,0.045,0.0502,,,0.0734,0.0637,,,0.0759,0.0344
T114N,0.0562,,0.0717,,0.105,,0.0153,0.0577,0.0618,,,,,,0.0569,0.0725,0.0535,0.0651,
T115Q,0.0621,0.0595,0.0547,0.0576,,,0.0582,0.0735,0.0635,,0.0482,0.0592,,0.0588,0.0566,0.0837,0.0486,0.0541,0.0279
T115R,0.0683,,0.0539,0.0642,,,0.0666,0.0482,,,0.0546,,,,0.0488,0.083,,0.059,
N116F,0.0622,0.0588,,0.015,,0.0675,0.0568,0.0754,,,,,,0.0592,0.0571,0.046,,,
N116V,0.0622,0.0701,,,,0.0618,,,0.0622,,0.0544,0.0545,0.0975,,0.0533,,,0.0691,0.0702
N116W,0.0466,,0.0696,,,0.0582,,,0.0786,,,,,0.0509,0.0721,,,0.071,
Q118W,0.0736,0.0527,0.068,0.0713,,,,,0.0586,,0.0473,0.0587,,0.0588,0.0587,0.0661,0.0162,,0.027
T119A,0.0872,0.068,0.0647,0.0551,0.0804,,0.057,0.0621,0.0478,0.0503,,,,0.0586,0.0572,0.101,0.04,0.0474,0.0629
T119G,0.0676,0.0783,,,0.115,,,,,,,0.0568,,0.0542,,,,,
T119Q,0.0493,,0.0701,0.0495,,,,,,,,,,0.0646,,0.0489,,,0.054
T119S,0.0645,,0.0645,,,,0.056,,,,,0.0587,,,0.0643,,,,0.0899
S121F,0.0597,,0.0411,0.0517,,,0.0582,0.0453,,,,0.066,,,0.0598,0.0873,,0.0613,0.076
S124C,0.065,0.0712,,0.0794,,,0.071,0.0593,,,0.0696,0.0651,,0.0521,0.064,0.0677,0.0532,,0.0561
